{"source": "PubChem BioAssay AID651820", "about": "(National Center for Advancing Translational Sciences (NCATS), 2012)", "note": "Where “and” joins values, the source holds several entries; their conditions need not be identical. Identical values can stand only once. The whole screen tested about 340,000 compounds, of which about 12,000 (3.5%) were called active. The inconclusive results got no clear call from the source; some entries with a clear call stand among them for comparison. The call rests on the fitted dose curve; in most records, active means well fitted inhibition curve with a large enough effect; inconclusive means small, poorly fitted or top-dose-only effect, or another doubt; inactive means no such curve, though single readings can be large or run the other way. Potencies beside an inconclusive call are fits to weak or partial responses and may not hold up. Some structures have more than one record in an assay (separate samples or runs), and their calls can disagree. On the % scale 0 is the no-effect control and ±100 the full control effect; potency means the concentration at half of the fitted maximal effect; tags describe the fitted curve by direction and shape."}
{"test": "qHTS Assay for Inhibitors of Hepatitis C Virus (HCV)", "conditions": "Huh7.5.1 HCVcc-Cre (HCVcc is cell-culture hepatitis C virus) infection, luciferase reporter, 44 h; activity change, negative = inhibition: at 41.8 µM (top of the series) unless noted", "procedure,_shortened": "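Luciferase read-out (15 sec integration) after a 15 min room-temperature substrate step quantifies HCVcc-Cre infection. Cells, 1,000 per well, had compound added 4 h post-plating, then virus at ~0.5 moi, and were cultured 44 h.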"}
{"smiles": "Cc1cc(NCCCCCCCNc2cc(C)nc3cc([N+](=O)[O-])ccc23)c2ccc([N+](=O)[O-])cc2n1", "Potency": "active: 10 µM"}
{"smiles": "O=C(CN(C(=O)CSc1nc2ccccc2o1)c1ccccc1F)NC1CCCCC1", "Potency": "inconclusive: 3.55 µM [inhibitor, partial curve]"}
{"smiles": "COc1ccc(CN(C)C(=O)C2CCN(C(=O)Nc3ccccc3)CC2)cc1OC", "Potency": "inactive"}
{"smiles": "COc1cc2[nH]c(=S)nc(NC3CCCCCC3)c2cc1OC", "Potency": "inconclusive: 8.91 µM [inhibitor, partial curve]"}
{"smiles": "CN(C(=O)Nc1cnc2ccccc2c1)c1ccccc1", "Potency": "inactive"}
{"smiles": "COc1ccc(OC)c(C2=NNC(=NCc3ccc4c(c3)OCO4)SC2)c1", "Potency": "inconclusive: 31.6 µM [inhibitor, single point]"}
{"smiles": "COC(=O)Cn1c(=NC(=O)c2cc(OC)cc(OC)c2)sc2cc(OC)ccc21", "Potency": "inconclusive: 2.82 µM [inhibitor, single point]"}
{"smiles": "CC(=O)Nc1ccc(S(=O)(=O)N2CCN=C2SCc2ccc([N+](=O)[O-])cc2)cc1", "Potency": "active: 10 µM"}
{"smiles": "Cc1ccccc1-c1cc(-c2ccccc2O)n[nH]1", "Potency": "active: 7.08 µM"}
{"smiles": "Cc1ccc(-n2ncc3c(N4CCN(c5ccccc5)CC4)ncnc32)c(C)c1", "Potency": "active: 4.47 µM"}
{"smiles": "CCCCn1c(N)c(N(CC(C)C)C(=O)c2oc3c(Cl)cccc3c2C)c(=O)[nH]c1=O", "activity change, negative = inhibition": "inconclusive: -105% [inhibitor]"}
{"smiles": "C/C(=N\\NC(=S)Nc1ccccc1C)C1Cc2ccccc2C(=O)O1", "note": "(configuration not stated)", "Potency": "inactive"}
{"smiles": "COC(=O)c1c(NC(=O)C(C)C)sc2c1CCN(Cc1ccccc1)C2", "Potency": "inconclusive: 7.08 µM [inhibitor, partial curve]"}
{"smiles": "COc1ccc(OC)c(-c2cc(C(=O)NCCN3CCOCC3)no2)c1", "Potency": "inconclusive: 14.1 µM [inhibitor, single point]"}
{"smiles": "CCOC(=O)c1c(NC(=O)CSc2nnnn2C)sc(C)c1-c1ccc(C)cc1", "Potency": "inconclusive: 7.94 µM [inhibitor, partial curve, poor fit]"}
{"smiles": "CC(=O)C1=C(c2ccccc2)NC(=S)NC1c1cc(Cl)c(OC(C)C)c(Cl)c1", "note": "(configuration not stated)", "Potency": "inconclusive: 31.6 µM [inhibitor, single point]"}
{"smiles": "CC(Nc1nc(N2CCOCC2)nc2ccccc12)c1ccccc1", "note": "(configuration not stated)", "Potency": "inconclusive: 31.6 µM [inhibitor, single point]"}
{"smiles": "O=C(O)c1cc2c(N3CCC(Cc4ccccc4)CC3)ncnc2s1", "Potency": "inactive"}
{"smiles": "Cc1cc(C)cc(SCc2noc(C(=O)NCCN(C)C)c2C(=O)NCCN(C)C)c1", "Potency": "inconclusive: 1.78 µM [inhibitor, full curve]"}
{"smiles": "CCc1cccc2c(=O)c(C(=O)NCCN3CCOCC3)c[nH]c12", "Potency": "active: 10 µM"}
{"smiles": "Cc1c(C)n(Cc2ccc(F)cc2)c2ccc(C(=O)NCCN3CCOCC3)cc12", "Potency": "inconclusive: 5.62 µM [inhibitor, partial curve]"}
{"smiles": "CSc1nc2ccccc2cc1/C=C(\\C#N)c1ccc(Cl)cc1Cl", "Potency": "inconclusive: 5.62 µM [inhibitor, single point]"}
{"smiles": "COc1ccccc1NC(=O)C1=C(C)Nc2nc(-c3ccc(N(C)C)cc3)nn2C1c1ccncc1", "note": "(configuration not stated)", "Potency": "inconclusive: 22.4 µM [inhibitor, partial curve]"}
{"smiles": "O=C(COc1ccccc1)Nc1cccc(-c2nnc(-c3ccccc3)o2)c1", "Potency": "inconclusive: 31.6 µM [inhibitor, single point]"}
{"smiles": "COc1cccc(OCCOc2c(OC)cccc2OC)c1", "Potency": "inactive"}
{"smiles": "Cc1cc(F)ccc1S(=O)(=O)Nc1ccc(O)c(Sc2ncn[nH]2)c1", "Potency": "inactive"}
{"smiles": "CCOC(=O)c1cnn(-c2nc3c(C)cccc3s2)c1C(F)(F)F", "Potency": "inconclusive: 5.62 µM [inhibitor, single point]"}
{"smiles": "CC(C)COc1ccc(C(=O)Nc2sc3c(c2C(=O)O)CC(C)(C)OC3)cc1", "Potency": "active: 10 µM"}
{"smiles": "CCOC(=O)c1csc(NC(=O)c2cc(OC)c(OC)c(OC)c2)n1", "Potency": "inconclusive: 0.708 µM [inhibitor, full curve, poor fit]"}
{"smiles": "CCOC(=O)N1CCN(C(=O)c2ccc3c(c2)sc2nc(-c4ccc(OC)cc4)cn23)CC1", "Potency": "inactive and active: 14.1 µM"}
{"smiles": "COc1ccc2c(c1OC)C(=O)O[C@H]2[C@@H]1c2cc3c(cc2CCN1C)OCO3", "Potency": "inactive"}
{"smiles": "Cc1ccc(-c2cc(C(F)F)nc3sc4c(=O)[nH]cnc4c23)cc1", "Potency": "inconclusive: 1.12 µM [inhibitor, partial curve]"}
{"smiles": "O=C(COc1ccccc1-c1ccccc1)N/N=C/c1ccc2ccccc2c1", "Potency": "inconclusive: 7.94 µM [inhibitor, partial curve]"}
{"smiles": "CCOC(=O)c1c(C)[nH]c(C(=O)Cn2c(=O)c3c(ncn3CC)n(Cc3ccccc3)c2=O)c1C", "Potency": "inactive and inconclusive: 14.1 µM [inhibitor, single point]"}
{"smiles": "COC(=O)C1=C(c2ccc(OC(F)(F)F)cc2)C[C@@H]2CC[C@H]1N2C(=O)NCc1cccc2ccccc12", "Potency": "active: 10 µM"}
{"smiles": "O=[N+]([O-])c1ccc(COc2ccccc2/C=N/O)cc1", "Potency": "inconclusive: 35.5 µM [inhibitor, partial curve]"}
{"smiles": "CC(C(=O)Nc1cc([N+](=O)[O-])ccc1Cl)N1CCN(c2ccccc2O)CC1", "note": "(configuration not stated)", "Potency": "inconclusive: 31.6 µM [inhibitor, single point]"}
{"smiles": "O=C(C1CCC1)N1CCN(c2ccnc3cc(Cl)ccc23)CC1", "Potency": "inconclusive: 31.6 µM [inhibitor, single point]"}
{"smiles": "COc1cc(/C=C/C(=O)OCC(=O)NC(=O)NC23CC4CC(CC(C4)C2)C3)ccc1OCC#N", "Potency": "inconclusive: 20 µM [inhibitor, partial curve]"}
{"smiles": "NC(=O)CC(NC(=O)c1ccc(Br)cc1)c1ccc(N2CCCCCCC2)c([N+](=O)[O-])c1", "note": "(configuration not stated)", "Potency": "inconclusive: 31.6 µM [inhibitor, single point]"}
{"smiles": "CC(C)(C)c1cc(C(=O)NCc2cc(F)cc3c2OCOC3)n(Cc2ccccc2)n1", "activity change, negative = inhibition": "inconclusive: -53.1% [inhibitor]"}
{"smiles": "Cc1cc(-c2ccc(C)c(S(=O)(=O)NCCN3CCC(C)CC3)c2)on1", "Potency": "inconclusive: 25.1 µM [inhibitor, partial curve]"}
